The list shows a part of the results. Antibody binding of pooled human sera (four to six donors per pool; dilution not stated) to peptides of the Trypanosoma cruzi antigen TSSA on microarrays. Quantile-normalised fluorescence in arbitrary units, mean of duplicate arrays; higher = more binding. No active / inactive call. The uninfected pools are read here as the healthy donors of the same country. The strongest signals lie near the top of the scale (about 60,000).
Experiments:
Experiment in all cases: antibody binding signal (normalised fluorescence) (arbitrary fluorescence units); higher = stronger serum antibody binding to peptide
[1] = system: pooled sera of chronic Chagas disease patients, Bolivia
Protocol: (§1)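 Microarray of 15-residue peptides over residues 30-55 of Trypanosoma cruzi TSSAII, each with 1 to 10 substitutions at naturally variable positions, probed with one serum pool per country.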

[2] = system: pooled sera of chronic Chagas disease patients, Brazil
Protocol: as §1

[3] = system: pooled sera of chronic Chagas disease patients, Colombia
Protocol: as §1

[4] = system: pooled sera of chronic Chagas disease patients, Mexico
Protocol: as §1

[5] = system: pooled sera of chronic Chagas disease patients, USA
Protocol: as §1

[6] = system: pooled sera of uninfected people, Argentina
Protocol: as §1

[7] = system: pooled sera of uninfected people, Bolivia
Protocol: as §1

[8] = system: pooled sera of uninfected people, Brazil
Protocol: as §1

[9] = system: pooled sera of uninfected people, Colombia
Protocol: as §1

[10] = system: pooled sera of uninfected people, Mexico
Protocol: as §1

[11] = system: pooled sera of uninfected people, USA
Protocol: as §1

Row | Sequence | antibody binding signal [1] | antibody binding signal [2] | antibody binding signal [3] | antibody binding signal [4] | antibody binding signal [5] | antibody binding signal [6] | antibody binding signal [7] | antibody binding signal [8] | antibody binding signal [9] | antibody binding signal [10] | antibody binding signal [11]
1 | KDKKTATGEAPSPSG | 6990 | 4040 | 644 | 189 | 13200 | 157 | 78.2 | 98.8 | 162 | 146 | 113
2 | SGTEKKAATGETPSP | 2110 | 9760 | 488 | 451 | 12400 | 385 | 438 | 279 | 577 | 264 | 960
3 | GTDKKPATGGAPSPP | 785 | 3030 | 6920 | 2010 | 1960 | 412 | 1030 | 141 | 224 | 456 | 200
4 | TDNKPATGGAPSQPG | 16900 | 28500 | 482 | 425 | 2530 | 239 | 608 | 541 | 227 | 346 | 224
5 | SGKDNKPATGETPSP | 32000 | 35300 | 441 | 390 | 25600 | 531 | 835 | 268 | 285 | 1740 | 577
6 | SGTDKKTATGGTPSP | 660 | 1340 | 8110 | 984 | 1980 | 355 | 169 | 245 | 856 | 225 | 163
7 | GTENKAATGGAPSPP | 1660 | 4250 | 1700 | 2490 | 3460 | 327 | 377 | 165 | 266 | 189 | 133
8 | STPPSGKDNKTAAGG | 9010 | 10000 | 1930 | 29700 | 4000 | 433 | 425 | 174 | 226 | 129 | 241
9 | SGKDKKPATGGTPSQ | 732 | 635 | 956 | 717 | 1510 | 203 | 109 | 259 | 394 | 104 | 98.2
10 | TEKKPAAGGAPSQPG | 224 | 5240 | 5910 | 595 | 1700 | 197 | 322 | 563 | 118 | 251 | 1200
11 | SGTEKKAAAGETPSP | 480 | 1630 | 620 | 651 | 2180 | 125 | 540 | 233 | 181 | 188 | 507
12 | PPSGTDKKPATGEAP | 46000 | 46600 | 9280 | 23200 | 39900 | 1210 | 875 | 616 | 580 | 4430 | 395
13 | SGKEKKTAAGEAPSP | 428 | 3570 | 2390 | 5910 | 8160 | 225 | 147 | 101 | 376 | 133 | 98.6
14 | GKDKKPATGGTPSQS | 414 | 221 | 622 | 811 | 981 | 214 | 135 | 424 | 185 | 157 | 95.4
15 | KDKKTAAGGTPSQSG | 177 | 197 | 3310 | 223 | 1520 | 170 | 76.7 | 316 | 143 | 100 | 111
16 | TPPSGKDNKTATGEA | 3600 | 2200 | 1530 | 15000 | 2650 | 203 | 386 | 178 | 272 | 118 | 128
17 | KEKKAATGGAPSPSG | 230 | 192 | 631 | 385 | 518 | 206 | 168 | 94.5 | 280 | 80 | 82.7
18 | TENKAATGEAPSPSG | 36900 | 32700 | 199 | 209 | 24500 | 141 | 197 | 117 | 113 | 91.8 | 234

Row | Sequence | antibody binding signal [1] | antibody binding signal [2] | antibody binding signal [3] | antibody binding signal [4] | antibody binding signal [5] | antibody binding signal [6] | antibody binding signal [7] | antibody binding signal [8] | antibody binding signal [9] | antibody binding signal [10] | antibody binding signal [11]
19 | GTDKKTAAGGTPSPP | 193 | 180 | 9150 | 411 | 2040 | 122 | 160 | 600 | 293 | 235 | 119
20 | DKKAAAGEAPSPSGA | 207 | 3510 | 413 | 374 | 10700 | 246 | 115 | 113 | 81.6 | 82.4 | 130
21 | ISTPPSGKDKKTATG | 628 | 1210 | 282 | 38700 | 502 | 153 | 276 | 99.6 | 106 | 112 | 95.7
22 | KDNKPAAGGTPSPPG | 191 | 174 | 865 | 149 | 225 | 225 | 253 | 464 | 289 | 129 | 109
23 | TISTPPSGTDKKAAA | 5220 | 34700 | 8250 | 41300 | 3080 | 1560 | 258 | 202 | 336 | 1390 | 607
24 | KDKKTATGETPSPPG | 303 | 402 | 188 | 223 | 3480 | 252 | 136 | 123 | 107 | 109 | 489
25 | SGTEKKPAAGEAPSQ | 12200 | 15700 | 1100 | 1180 | 14600 | 93.5 | 662 | 477 | 94.9 | 281 | 465
26 | GKDKKPATGEAPSQP | 13800 | 44400 | 1640 | 1940 | 30200 | 749 | 318 | 151 | 178 | 104 | 124
27 | TENKTAAGEAPSQPG | 25100 | 41900 | 204 | 263 | 8870 | 226 | 200 | 227 | 161 | 162 | 159
28 | EKKTATGETPSPPGA | 379 | 1060 | 344 | 429 | 6950 | 345 | 740 | 149 | 116 | 246 | 1150
29 | STPPSGKDNKTAAGE | 25200 | 10400 | 990 | 32200 | 4000 | 356 | 584 | 241 | 308 | 126 | 125
30 | SGKDKKPAAGEAPSQ | 1740 | 11400 | 1540 | 1070 | 12000 | 120 | 86.2 | 89.8 | 1370 | 60.3 | 83.4
31 | KENKPATGGTPSQPG | 258 | 12600 | 884 | 741 | 1970 | 468 | 328 | 647 | 201 | 376 | 148
32 | GKENKTAAGEAPSQS | 4210 | 15400 | 13600 | 11200 | 19100 | 520 | 156 | 148 | 137 | 156 | 165
33 | SGTDNKTAAGETPSP | 211 | 41700 | 421 | 290 | 999 | 138 | 628 | 1240 | 170 | 174 | 643
34 | PSGTEKKPAAGGAPS | 5370 | 16000 | 10400 | 8650 | 7590 | 703 | 437 | 316 | 314 | 591 | 822
35 | KDKKTAAGGAPSQPG | 222 | 382 | 2240 | 234 | 208 | 170 | 116 | 111 | 168 | 85.3 | 130
36 | GTDNKAATGGAPSQP | 2830 | 33900 | 576 | 560 | 1380 | 294 | 630 | 1540 | 215 | 227 | 118

— the supplement of paper PMC10441789
